Source: publication PMC4336329 (PLoS ONE, 2015)
About 2,200 (0.71%) of roughly 310,000 compounds showed an effect of 50% or more. Effects have a minus sign here. The list shows a part of the results.

These molecules were tested against human ether-à-go-go-related gene (hERG) potassium channel (human, UniProt Q12809) (assay: primary screen, population patch clamp on CHO cells stably expressing hERG).
human ether-à-go-go-related gene (hERG) potassium channel, sequence (Q12809 whole entry, looked up): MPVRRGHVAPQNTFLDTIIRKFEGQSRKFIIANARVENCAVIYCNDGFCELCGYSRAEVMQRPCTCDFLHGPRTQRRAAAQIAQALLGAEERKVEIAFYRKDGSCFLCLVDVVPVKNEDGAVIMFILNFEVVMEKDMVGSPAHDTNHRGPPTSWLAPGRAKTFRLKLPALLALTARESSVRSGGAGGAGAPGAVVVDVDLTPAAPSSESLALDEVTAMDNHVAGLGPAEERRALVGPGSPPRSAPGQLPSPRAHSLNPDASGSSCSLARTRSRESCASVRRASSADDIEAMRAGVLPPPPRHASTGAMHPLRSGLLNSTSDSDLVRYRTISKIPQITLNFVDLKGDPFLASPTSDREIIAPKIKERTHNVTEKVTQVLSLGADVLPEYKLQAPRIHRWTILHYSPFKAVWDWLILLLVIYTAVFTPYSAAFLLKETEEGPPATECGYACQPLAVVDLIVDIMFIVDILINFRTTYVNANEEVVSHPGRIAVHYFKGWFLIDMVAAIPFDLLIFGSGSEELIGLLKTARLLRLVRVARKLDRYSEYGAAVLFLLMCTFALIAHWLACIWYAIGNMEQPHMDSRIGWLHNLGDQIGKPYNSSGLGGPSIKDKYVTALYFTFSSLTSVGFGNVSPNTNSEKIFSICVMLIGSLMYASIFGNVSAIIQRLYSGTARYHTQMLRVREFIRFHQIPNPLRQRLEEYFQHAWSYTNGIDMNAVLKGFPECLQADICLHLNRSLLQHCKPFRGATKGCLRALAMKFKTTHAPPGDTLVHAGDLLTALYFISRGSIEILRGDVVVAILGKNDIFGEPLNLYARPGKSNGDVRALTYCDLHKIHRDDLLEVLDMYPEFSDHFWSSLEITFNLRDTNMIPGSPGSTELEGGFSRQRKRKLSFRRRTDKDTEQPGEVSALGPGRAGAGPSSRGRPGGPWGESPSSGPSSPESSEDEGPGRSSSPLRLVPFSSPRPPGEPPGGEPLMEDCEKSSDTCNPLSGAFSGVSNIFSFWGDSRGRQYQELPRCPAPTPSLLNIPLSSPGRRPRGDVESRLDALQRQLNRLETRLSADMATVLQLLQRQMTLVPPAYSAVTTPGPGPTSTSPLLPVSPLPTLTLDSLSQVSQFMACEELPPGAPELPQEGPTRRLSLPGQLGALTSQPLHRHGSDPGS

| Compound | hERG current change (%, negative = inhibition) at 1uM |
| --- | --- |
| Cc1ccccc1NC(=O)c1c(C)[nH]c(=S)c(C#N)c1-c1ccco1 | 5.58% |
| CCc1ccc(C(=O)OCC(=O)NC2CCCC2)cc1 | 10.6% |
| CCc1ccc2nc(N(CCCN(C)C)C(=O)c3ccc4c(c3)OCCO4)sc2c1.Cl | 2.17% |
| O=C(CCN1CCN(Cc2ccccc2)CC1)NNC(=O)Cc1ccc(Cl)c(Cl)c1 | -26.4% |
| O=S(=O)(NCc1ccccc1Br)c1cccs1 | 7.6% |
| CCOc1ccc2c(c1)C(C)=CC(C)(C)N2C(=O)Nc1ccccc1F | 12.5% |
| c1ccc(-n2cc(CN3CCCC(CN4CCCC4)C3)c(-c3ccc4c(c3)OCO4)n2)cc1 (centres unmarked) | 7.56% |
| COc1ccccc1NC(=O)/C(C#N)=C/c1ccc(OCCN2CCOCC2)c(OC)c1 | 13.2% |
| Cc1cc(Cl)c(S(=O)(=O)NCc2ccccc2)cc1OCC(N)=O | 2.68% |
| Nc1nc(-c2cccnc2)nc2sc3c(c12)CCCC3 | 5.47% |
| CSc1nc(-c2ccco2)nn1C(=O)CCc1ccccc1 | 20.2% |
| COc1ccc(CN2CCN(c3ncnc4scc(-c5ccc(F)cc5)c34)CC2)cc1 | -1.77% |
| COc1ccc(/C=C2\C(=O)c3ccccc3OC2c2ccccc2)cc1 (centres unmarked) | 17.6% |
| COc1cc2c3c(c1)C1(C(=O)N3C(C)(C)C=C2C)C(C#N)=C(N)Oc2cc(O)ccc21 (centres unmarked) | -9.14% |
| COCCN(CC1CCCN(C2Cc3ccccc3C2)C1)C(=O)CCC(F)(F)F (centres unmarked) | -6.73% |
| CCN(CC)C(=O)C1CC(=O)N(c2ccc(OC)cc2)C1c1ccc(OC)cc1 (centres unmarked) | 16% |
| CCOc1ccc(NC(=O)Nc2ccc(Br)cn2)cc1 | 7.95% |
| Cc1ccccc1C(=O)N1CC(=O)Nc2ccc(F)cc2C1c1ccc(F)cc1 (centres unmarked) | 6.19% |
| O=C(Cn1cnc2c(cnn2-c2ccccc2)c1=O)NC1CCCC1 | -10.7% |
| CCN(C(=O)COc1cc(OC)ccc1C(C)=O)C1CCS(=O)(=O)C1 (centres unmarked) | 14.9% |
| CCC(C(=O)Nc1nc(C)c(C)s1)c1ccccc1 (centres unmarked) | 17.8% |
| COc1ccc(Nc2ncnc3c2c(C)c(C)n3CCCN(C)C)cc1 | 4.94% |
| CCOC(=O)/C(C(=O)Nc1ccccc1Cl)=C1/NC(C)(C)Cc2ccccc21 | 6.22% |

| Compound | hERG current change (%, negative = inhibition) at 1uM |
| --- | --- |
| Cc1ccc(C)c(N2CCN(C(=O)CCc3nc4ccccc4[nH]3)CC2)c1 | 11.5% |
| O=C(c1cc(COc2ccc(F)cc2F)on1)N1CCOCC1 | 14.2% |
| Cc1ccc(C(=O)NC(N2CCCC2)C(Cl)(Cl)Cl)cc1 (centres unmarked) | 4.37% |
| CC[C@H](C)C(N)c1cn(C(CCCN=C(N)N)C(=O)N2CCNCC2)nn1 (some centres unmarked) | 11.4% |
| Cc1ccc(/C(O)=C2\C(=O)C(=O)N(CCN(C)C)C2c2ccccc2F)cc1 (centres unmarked) | -6.65% |
| COc1ccc(NS(=O)(=O)c2cc(NC(=O)c3ccc(C)o3)ccc2N2CCCCC2)cc1 | 9% |
| CC(=O)Nc1ccc(OC(=O)c2cc([N+](=O)[O-])ccc2Cl)cc1 | 2.21% |
| C=C(C)C1CC=C(C)/C(=N/NC(=O)c2ccc(NC(=O)CC)cc2)C1 (centres unmarked) | -7.98% |
| O=C(c1ccccc1)C1NC1c1ccccc1 (centres unmarked) | 11.3% |
| Cc1cc(C)cc(NC(=O)[C@@H](NC(=O)c2ccco2)C(C)C)c1 | 11.1% |
| Cc1coc2cc3oc(=O)c(CCC(=O)N4C[C@H]5C[C@@H](C4)c4cccc(=O)n4C5)c(C)c3cc12 | -16.8% |
| N/C(=N\OC(=O)c1ccccc1Cl)c1ccc(Cl)cc1 | -5.66% |
| Cc1cc(C)nc(NC(=O)c2ccc(OC(C)C)cc2)n1 | 11.8% |
| CC1CCCCC1NC(=O)COC(=O)c1ccc(S(=O)(=O)NCc2ccco2)cc1 (centres unmarked) | 0.0932% |
| CC(=O)c1ccccc1OC(=O)c1ccc(-c2ccccc2)cc1 | 9.87% |
| Cc1ccc(N(CC(=O)N2CCc3ccccc3C2)S(C)(=O)=O)cc1 | 1.69% |
| Cc1ccc(C(=O)OC(C)C(=O)Nc2ccc(Cl)cn2)s1 (centres unmarked) | 7.21% |
| CCCCSCCCNC(=O)Nc1cccc(OC)c1 | 13.1% |
| COc1ccc(NC(=O)c2c(N)no[n+]2[O-])c(OC)c1 | 4.59% |
| Cn1c(=S)[nH]c2sc3c(c2c1=O)CCC(C(C)(C)C)C3 (centres unmarked) | 13.9% |
| O=C1Cc2cc(S(=O)(=O)N3CCCCC3)ccc2N1 | 5.78% |
| CC(=O)NCCc1nc2cc(NC(=O)c3ccccc3Cl)ccc2n1C | 12.1% |
| Cn1cc(S(=O)(=O)CC(=O)N2CCc3ccccc32)c2ccccc21 | 3.32% |

| Compound | hERG current change (%, negative = inhibition) at 1uM |
| --- | --- |
| Cc1csc(NC(=O)CSc2nnc(CCNC(=O)c3ccc(Cl)c(Cl)c3)n2C)n1 | 2.76% |
| COc1ccc2[nH]cc(CCn3ccc(O)c(C/C=C/c4ccccc4)c3=O)c2c1 | 6.04% |
| Cc1cc(NC(=O)C2CCCCC2)ccc1NC(=O)c1ccccc1Cl | 10.4% |
| O=c1cc(CSc2nnc(Nc3ccccc3)s2)nc2sccn12 | 11.9% |
| CNC(=S)Nc1ccc(C)c(NC(=S)NC)c1 | 4.04% |
| COCCNC(=O)COC(=O)/C=C/c1cnc2ccccc2n1 | 7.92% |
| O=C(O)C1CC=CCC1C(=O)N1CCN(c2nc(-c3ccccc3)c3ccccc3n2)CC1 (centres unmarked) | 10.3% |
| COc1cc(C(=O)Nc2ccc3c(c2)OCO3)ccc1OCc1c(C)noc1C | 20.7% |
| CC(C)=CCCC1=CCC(/C(C)=N/NC(N)=O)CC1 (centres unmarked) | -19% |
| COc1ccc(C(=O)CC(=O)C(=O)Nc2ccc(Cl)cc2)cc1 | 3.93% |
| CCOc1ccc(CSC(=N)N)cc1Cl.Cl | 12.9% |
| S=C(NCc1ccco1)Nc1cc(-c2ccccc2)[nH]n1 | -14.6% |
| Cc1cccc(N(Cc2ccccc2)C(=O)c2ccccc2F)c1 | 8.37% |
| Cc1ccc(NC(=O)c2cccc(NC3=NC4CS(=O)(=O)CC4S3)c2)cc1 (centres unmarked) | 6.56% |
| Cc1ccc(CN(Cc2ccco2)C(=O)c2ccco2)cc1 | 7.66% |
| O=C(COC(=O)c1ccccn1)c1ccc([N+](=O)[O-])cc1 | 3.17% |
| CC(O)c1nc2ccccc2n1CCCOc1ccccc1 (centres unmarked) | 13.7% |
| COc1ccc(NS(=O)(=O)c2cc(C(=O)OC(C)C(=O)N3CCOCC3)ccc2Cl)cc1 (centres unmarked) | 14.8% |
| O=C(N/N=C/C(Br)=C/c1ccccc1)NC1CCCCC1 | 9.96% |
| Cc1ccc(C)c(-n2c(-c3ccc(Br)cc3)csc2=NC(=O)c2ccccc2F)c1 | 10.1% |
| O=C(Nc1ccccc1)C1CC2CCCC(C1)C2=O (centres unmarked) | 1.67% |
| O=C(O)Cn1ncc2ccccc2c1=O | 13.6% |
| O=C(NCCC(c1ccccc1)c1ccccc1)c1ccc(Br)o1 | 6.74% |

| Compound | hERG current change (%, negative = inhibition) at 1uM |
| --- | --- |
| O=[N+]([O-])c1cnc2ccccc2c1 | 0.449% |
| CCc1ccc2oc(C(=O)N3CCN(c4ccc(OC)cc4)CC3)cc(=O)c2c1 | 1.45% |
| CCn1c(SCC(=O)Nc2nc(C)cs2)nnc1-c1ccncc1 | 8.16% |
| CN1CCSc2ccc(C(=O)Nc3cccc(F)c3)cc21 | -2.18% |
| COc1ccc(F)cc1S(=O)(=O)NCc1cc(=O)n(C)c(=O)n1C | 15% |
| CCN(c1cccc(C)c1)c1nc2ccsc2c(=O)s1 | 3.58% |
| Cc1cccc(NC(=O)CCC2CCN(C(=O)C3CC=CCC3)CC2)c1 (centres unmarked) | 6.89% |
| CC(=O)c1cccc(OCc2cc(C(=O)NC(C)Cc3cccnc3)no2)c1 (centres unmarked) | 0.518% |
| Br.C=CCN1CCc2cccc3c2[C@H]1Cc1ccc(O)c(O)c1-3 | 8.51% |
| Cc1noc(C)c1S(=O)(=O)N1CCC(C(=O)Nc2ccc(OC(F)(F)F)cc2)CC1 | 7.5% |
| COc1ccc(CNC(=O)C(C)Cc2ccccc2)cc1O (centres unmarked) | 15% |
| Cc1cc(C)n(-c2ccccc2[N+](=O)[O-])n1 | 12% |
| COc1ccc(CCC(=O)OCC(=O)Nc2ccccc2)cc1 | 16.5% |
| Cn1c(=O)c([N+](=O)[O-])c(NCC(O)c2ccccc2)c2ccccc21 (centres unmarked) | 7.39% |
| Cc1cc(C(=O)Cn2nnc3ccccc3c2=O)c(C)n1-c1ccccc1F | 9.45% |
| CCOc1ccc(/C=C2\SC(=O)N(c3ccc(O)cc3)C2=O)cc1OC | 9.01% |
| Cc1noc(NS(=O)(=O)c2ccc(NC(=O)c3ccc(Br)o3)cc2)c1C | 15.9% |
| Cc1cc2cc(CN(Cc3cccs3)S(=O)(=O)c3ccc4c(c3)OCCO4)c(=O)[nH]c2cc1C | 10.9% |
| CCOc1ccc(N2CC(C(=O)OCC(=O)NCc3ccccc3)CC2=O)cc1 (centres unmarked) | -12.8% |
| N#Cc1c(N)nc(SCC(=O)C23CC4CC(CC(C4)C2)C3)c(C#N)c1-c1ccc(Cl)cc1 | 14.6% |
